Results from PMC12040169 (PLOS Biology, 2025).
The other results are listed elsewhere or left out.

System: T1, C. trachomatis L2/434/Bu expressing GFP (CTL2-GFP)
T1 construct: L2/434/Bu GFP intracellular growth in HeLa cells
Design: species or system HeLa; C. trachomatis total inclusion area by high-content imaging, normalised to DMSO
Settings: total inclusion area; 28.5 h, 10 µM; inhibitor
Method in brief: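 Following bulk GFP and resorufin fluorescence reads, infected cells were fixed, Hoechst-stained and imaged on a high-content platform. Inclusion total area and number per well served as growth proxies; nuclei counts indicated host viability. MICs were derived as for the fluorescence assay.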

Going from CC(C)Oc1cncc(Cl)n1 [CBK113321] to COc1ncc(-c2ccc(NCC(C)C)nc2)c(OC)n1 [CBK036934], the “% of control remaining” value rises from 70.8746 to 113.499.

Going from Cc1cccc(-c2noc(C)c2C(=O)NCCn2ccnc2C)c1 [CBK282633] to Cc1ccc(C)c(NC(=O)c2sc3cc(C)ccc3c2Cl)c1 [CBK263648], the “% of control remaining” value rises from 91.8149 to 116.664.

Going from COc1ccc(C(=O)NC(NC(=S)Nc2cccc3cccnc23)C(Cl)(Cl)Cl)cc1 (stereo not drawn) [CBK261028] to Cc1ccc(C(=O)Nc2ccccc2C(=O)NC(C)C(=O)O)cc1 (stereo not drawn) [CBK263540], the “% of control remaining” value rises from 70.2291 to 113.929.

First: O=C(CN(c1ccccc1)S(=O)(=O)c1ccccc1[N+](=O)[O-])Nc1ccccc1 [CBK263777]
Second: Cc1ccc(S(=O)(=O)N(CC(=O)Nc2cccnc2)c2cc(C)ccc2C)cc1 [CBK264115]
The “% of control remaining” value of the first is lower: 95.142 for the first, 105.701 for the second.

First: O=C(O)CCSc1cccc(C(F)(F)F)c1 [CBK012986]
Second: CN1CCN(C(=O)c2ccc(-c3cccc(C(F)(F)F)c3)nc2N2CCOCC2)CC1 [CBK106194]
The “% of control remaining” value of the first is lower: 81.9252 for the first, 101.522 for the second.

Compared with Cc1ccc(CN(CCN(C)C)Cc2c(C)nn(C(C)C)c2C)o1 [CBK283235], CN(C)CCN(Cc1ccncc1)Cc1cc(F)ccc1F [CBK283095] is lower in “% of control remaining” value: 122.145 for the first, 98.2371 for the second.

First: CCOc1ccc(NC(=O)c2ccc(S(=O)(=O)N(C)C)cc2)c([N+](=O)[O-])c1 [CBK263396]
Second: CN(C)S(=O)(=O)c1ccc(C(=O)Nc2cccc(N3Cc4ccccc4C3)c2)cc1 [CBK266025]
The “% of control remaining” value of the first is lower: 109.207 for the first, 126.453 for the second.

Compared with CC1(C)CC(=O)C2=C(C1)Nc1ncnn1C2c1ccccc1F (stereo not drawn) [CBK266446], O=C1CCCC2=C1C(c1ccccc1O)c1c([nH][nH]c1=O)N2 (stereo not drawn) [CBK288442] is higher in “% of control remaining” value: 79.7052 for the first, 111.924 for the second.

Compared with C[N+]1(c2ccccc2)CCC(N)=N1 (stereo not drawn) [CBK262213I], CS(=O)(=O)Nc1nccnc1N1CCN(Cc2ccccc2)CC1 [CBK084268] is higher in “% of control remaining” value: 95.9062 for the first, 98.5385 for the second.

Compared with CCn1nccc1C(=O)N1CCC(c2cc3c(C)cccc3cn2)CC1 [CBK282234], Cc1cc2nccc(C3CCCN(C(=O)c4ccccc4F)C3)n2n1 (stereo not drawn) [CBK284184] is lower in “% of control remaining” value: 89.5473 for the first, 72.4188 for the second.

Compared with COC(=O)c1c(NC(=O)CC2Nc3cccc4cccc(c34)NC2=O)sc(C)c1C (stereo not drawn) [CBK267562], Cc1nc2ccc(C(=O)NC3=NN(c4ccccc4)C(=O)C3)cn2c1N(C)C(=O)CCc1ccccc1 [CBK146817] is lower in “% of control remaining” value: 111.37 for the first, 86.7858 for the second.

First: OC(CN1CCC(Oc2cccc(F)c2)CC1)c1cccs1 (stereo not drawn) [CBK281453]
Second: O=C(C1CC1)N1CCC(n2nc(-c3cccs3)ccc2=O)CC1 [CBK284213]
The “% of control remaining” value of the first is higher: 99.8458 for the first, 71.6949 for the second.

Going from CCCC(C)c1cn(CCc2cc(O)nc(C)n2)nn1 (stereo not drawn) [CBK306871] to CN(Cc1cnn(C)c1)C(=O)c1cc(O)nc2ccccc12 [CBK251706], the “% of control remaining” value rises from 81.4463 to 85.5895.

Going from O=C(/C=C/c1ccc2c(c1)OCO2)N1CCCC2(CCN(C(=O)c3ccoc3)C2)C1 (stereo not drawn) [CBK131622] to O=C(Nc1ccc(F)cc1)c1ccc(=O)n(CC(=O)N2CCC3(CCCCC3)C2)c1 [CBK286006], the “% of control remaining” value falls from 94.0423 to 93.1056.

Compared with O=C(COc1ccc(S(=O)(=O)N2CCOCC2)cc1)NCc1ccccc1 [CBK268533], CC(=O)Nc1ccc(S(=O)(=O)N2CCC(n3c(=O)[nH]c4ccccc43)CC2)cc1 [CBK149696] is lower in “% of control remaining” value: 112.782 for the first, 91.1411 for the second.

Compared with CCC(C)(C)c1ccc(S(=O)(=O)Nc2ccc(F)cc2F)cc1 [CBK200039], CCOc1cc(S(=O)(=O)NCc2ccccn2)ccc1Cl [CBK266817] is lower in “% of control remaining” value: 114.808 for the first, 105.645 for the second.

Compared with O=c1/c(=C/c2cccnc2)sc2n1CN(c1cccc([N+](=O)[O-])c1)CN=2 [CBK264401], C=CCOc1ccc(C(=O)C2=C(O)C(=O)N(Cc3cccnc3)C2c2cccnc2)cc1 (stereo not drawn) [CBK265167] is lower in “% of control remaining” value: 114.415 for the first, 97.2682 for the second.

Going from NS(=O)(=O)c1ccc(NC(=O)CN2CCN(c3ccc([N+](=O)[O-])cc3)CC2)cc1 [CBK266232] to Cc1nn(C)c(C)c1NC(=O)CN1CCN(c2cccc(Cl)c2)CC1 [CBK306052], the “% of control remaining” value falls from 101.999 to 67.5838.

Compared with CSCCCNC(=O)c1cnn2c(C)c(Cc3cccnc3)c(C)nc12 [CBK162164], CCCN(Cc1nccn1C)C(=O)Cn1nc(C)c2ccccc2c1=O [CBK307441] is higher in “% of control remaining” value: 26.1654 for the first, 37.9144 for the second.

First: CCN(Cc1ccncc1)C(=O)NCc1ccc2c(c1)OCO2 [CBK145056]
Second: c1ccc2c(c1)OCC(COc1nccc(N3CCCN(Cc4ccc5c(c4)OCO5)CC3)n1)O2 (stereo not drawn) [CBK083235T]
The “% of control remaining” value of the first is higher: 66.2899 for the first, 63.5383 for the second.

Going from Cc1nc(C2CCCN(C(=O)c3cccnc3)C2)c2sccn12 (stereo not drawn) [CBK285233] to Cc1ccc2[nH]c(C3CCCCN3C(=O)c3ccncc3)nc2c1 (stereo not drawn) [CBK284000], the “% of control remaining” value rises from 81.275 to 106.424.

Compared with CCN1CCN(Cc2c(C(C)(C)C)[nH]c3ncccc23)CC1 [CBK285341], OCCN1CCN(c2cc(N3CCN(c4ccccn4)CC3)n3nccc3n2)CC1 [CBK037129] is higher in “% of control remaining” value: 104.043 for the first, 140.728 for the second.

First: CC(NC(=O)CCn1c(C(F)F)cc2cccnc21)c1ccncc1 (stereo not drawn) [CBK285069]
Second: COC(=O)[C@H]1CN(C(=O)c2ccncc2)C[C@@H]1c1ccc(F)cc1 [CBK283509]
The “% of control remaining” value of the first is lower: 78.9733 for the first, 80.9151 for the second.

First: Cc1ccc(C(=O)NCCN2CCC(O)(c3ccc(F)cc3)CC2)o1 [CBK283167]
Second: O=C(NCCN1CCCC1)c1cc2cc(Cl)ccc2[nH]1 [CBK107267]
The “% of control remaining” value of the first is higher: 78.8263 for the first, 61.3543 for the second.

First: C=CCOc1ccc(C(=O)C2=C(O)C(=O)N(Cc3cccnc3)C2c2ccc(Cl)cc2)c(C)c1 (stereo not drawn) [CBK264716]
Second: Cc1nc(C)c(C(=O)C2=C(O)C(=O)N(CCCN3CCOCC3)C2c2ccncc2)s1 (stereo not drawn) [CBK235187]
The “% of control remaining” value of the first is lower: 102.081 for the first, 122.564 for the second.

Compared with CN(C)CCCn1c(=O)n(CC(=O)O)c(=O)c2c3c(sc21)CCC3 [CBK286783], Cc1cc(C)c(NC(=O)C2CCCN2CCCN(C)C)c(C)c1 (stereo not drawn) [CBK278172F] is higher in “% of control remaining” value: 62.2577 for the first, 99.6426 for the second.

First: Cc1cc(C)n(C(C(=O)NCC2(C)COC2)C(C)C)n1 (stereo not drawn) [CBK281758]
Second: Cc1ccc2c(c1)c(NC(=O)OC(C)C)nn2Cc1cc2c(cc1Cl)OCO2 [CBK048652]
The “% of control remaining” value of the first is higher: 112.226 for the first, 108.519 for the second.

Compared with O=C(NCC1COc2ccccc2O1)C1(c2ccccc2)CCCC1 (stereo not drawn) [CBK149524], O=C1NCC2(C/C=C/CCOc3ccccc31)CCN(Cc1ccccn1)CC2 [CBK292159] is lower in “% of control remaining” value: 97.9693 for the first, 78.6956 for the second.

First: Cn1cc(CCNC(=O)N2CCCN(Cc3cccs3)CC2)cn1 [CBK305393]
Second: O=C(NCCCn1ccnc1)N1CCN(Cc2ccc(Cl)cc2)CC1 [CBK305894]
The “% of control remaining” value of the first is higher: 39.2672 for the first, 35.8713 for the second.

First: CC(C)CCN1CCn2nc(CNc3cnccn3)cc2C1 [CBK307540]
Second: COc1ncc(-c2cncc(NCCO)n2)c(OC)n1 [CBK037939]
The “% of control remaining” value of the first is lower: 71.7395 for the first, 131.009 for the second.

First: O=C(Nc1ccccc1C(=O)O)c1cccc(NC(=O)c2ccco2)c1 [CBK299774]
Second: O=C(Cn1cnc2ccccc2c1=O)Oc1cccc(NC2=NS(=O)(=O)c3ccccc32)c1 [CBK264975]
The “% of control remaining” value of the first is lower: 80.8851 for the first, 97.3341 for the second.

Going from O=S(=O)(NCc1ccccn1)c1ccc(Cl)c(Cl)c1Cl [CBK263978] to Cc1cc2c(cc1S(=O)(=O)NCc1ccccc1)NC(=O)CO2 [CBK270159], the “% of control remaining” value rises from 93.4359 to 98.7978.

Compared with Cn1c(C(=O)NCCc2ccc(S(=O)(=O)NC(=O)NC3CCCCC3)cc2)cc2ccccc21 [CBK011876], O=C(c1ccc(F)cc1)C1CCN(CCC(c2ccccc2)c2ccccc2)CC1 [CBK149138] is lower in “% of control remaining” value: 132.544 for the first, 81.8005 for the second.

Compared with c1ccc(Cn2cc(-c3nccnc3OCc3ccccn3)cn2)cc1 [CBK107088], CCOc1ccccc1N1CCN(C(=O)c2cc(-c3ccccc3C)nc3ccccc23)CC1 [CBK091950] is higher in “% of control remaining” value: 70.3248 for the first, 74.3226 for the second.

First: COc1ccc2[nH]c(/C(C#N)=C\c3ccc(-c4cc(C(=O)O)ccc4Cl)o3)nc2c1 [CBK268370]
Second: O=c1cc2oc3cc(O)c(O)cc3c(-c3ccc(OCc4cccc([N+](=O)[O-])c4)cc3)c-2cc1O [CBK265408]
The “% of control remaining” value of the first is lower: 102.26 for the first, 112.41 for the second.

Going from CCn1cc(C2CN(S(=O)(=O)c3cc(C)c(OC)c(C)c3)CCO2)cn1 (stereo not drawn) [CBK304224] to Cc1nc2c(c(=O)[nH]1)CCN(C(=O)c1oc3ccccc3c1C)C2 [CBK283752], the “% of control remaining” value rises from 26.7955 to 94.4936.

Going from Nc1ncnc2c1ccn2[C@H]1C[C@@H](O)[C@@H](CO)O1 [CBK201258] to O=C(CCc1ccc(Cl)cc1)NCCn1cncn1 [CBK283184], the “% of control remaining” value falls from 111.569 to 87.9874.

Going from O=[N+]([O-])c1ccc(-c2nc(-c3ccccc3)c(-c3ccc4oc5ccc(-c6[nH]c(-c7ccc([N+](=O)[O-])cc7)nc6-c6ccccc6)cc5c4c3)[nH]2)cc1 [CBK261434] to COc1cc(CNc2ccc(N3CCOCC3)c(Cl)c2)ccc1OCc1ccccc1F [CBK074392], the “% of control remaining” value falls from 89.1529 to 81.4098.

First: COc1ccc(NC(=S)NCCN2CCC(C)CC2)cc1Cl [CBK267268]
Second: Sc1nnc(C2CCCC2)n1CC1CCCO1 (stereo not drawn) [CBK288413]
The “% of control remaining” value of the first is lower: 72.4201 for the first, 78.8082 for the second.
